This list was built around the results that the source calls inconclusive (neither active nor inactive); the mix of calls is not that of the screen. A call without a number means that no potency is given here. For some assays here: A potency beside an inconclusive call is a rough fit, not a confirmed value. Active and inactive are the calls of the source. Unless noted, calls follow the shape of the dose curve; as a rule, active = well fitted curve in the direction sought with a large enough effect; inconclusive = small, poorly fitted or top-dose-only effect, or another doubt; inactive = no such curve, though single readings can be large; an effect the other way counts as inactive or inconclusive.
What was measured:
[1] = P-glycoprotein substrates identified in KB-8-5-11 adenocarcinoma cell line, qHTS therapeutic library screen (AID 1346987); conditions: activity change, negative = cytotoxicity: at 44.5 µM (top of the series); also: nearly all actives have a fitted effect of over 65% in size
Procedure, shortened: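 KB-8-5-11, a colchicine-selected P-gp-overexpressing KB-3-1 subline, was grown without colchicine for the assay. Cells were seeded at 500 cells/well, dosed in concentration-response and incubated 72 h at 37 degree C, 5% CO2. Viability was read by CellTiter-Glo luminescence.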

[2] = test system: Zika virus NS2B-NS3 protease (unlinked complex); assay: Primary screen GU Rhodamine qHTS for Zika virus inhibitors: Unlinked NS2B-NS3 protease assay (AID 1347159); conditions: Recombinant ZIKV NS2B-NS3 protease, Rhodamine110 substrate fluorescence; activity change, negative = inhibition: at 107 µM (top of the series); also: nearly all actives have a fitted effect of over 60% in size; also: potency is read from the fitted curve at half-maximal effect
Procedure, shortened: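 Noncovalent NS2B hydrophilic domain/NS3 protease complex (25 nM final) in 10 mM Tris-HCl pH 8.0, 0.01% Tween 20, preincubated 15 min with compounds (up to 114 microM), then 1.5 microM Rhodamine110 substrate. Fluorescence change over 15 min fitted to 4-parameter Hill.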

Tov112D = assay: Primary qHTS to identify gynecologic anti-cancer compounds using libraries of approved drugs and bioactive compounds (AID 1345084); conditions: Gynecologic cancer cell panel viability, ATPlite luminescence, 48 h; series mostly up to 57.5 µM; also: nearly all actives have a fitted effect of over 55% in size; also: potency is read from the fitted curve at half-maximal effect
Procedure, shortened: (§1)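 Cells, 1,000 per well, plated 16 h, then exposed 48 h at 37 C to compounds. Viability by ATPlite luminescence after 15 min at room temperature.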

[3] = P-glycoprotein substrates identified in KB-3-1 adenocarcinoma cell line, qHTS therapeutic library screen (AID 1346986); also: nearly all actives have a fitted effect of over 60% in size
Procedure, shortened: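 Cells seeded 500/well in DMEM/10% FCS; compounds pinned in dose-response; 72 h incubation; CellTiter-Glo added, 5 min, luminescence. KB-8-5-11 run ±tariquidar to test reversal of P-gp resistance.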

[4] = biological target: Glutathione peroxidase 1 (Homo sapiens) (UniProt P07203); assay: Primary qHTS Assay for Inhibitors of Recombinant Selenoprotein Glutathione Peroxidase 1 (GPX1) (AID 1845191); also: nearly all actives have a fitted effect of over 65% in size
Chain of UniProt P07203 (P07203 whole entry, looked up): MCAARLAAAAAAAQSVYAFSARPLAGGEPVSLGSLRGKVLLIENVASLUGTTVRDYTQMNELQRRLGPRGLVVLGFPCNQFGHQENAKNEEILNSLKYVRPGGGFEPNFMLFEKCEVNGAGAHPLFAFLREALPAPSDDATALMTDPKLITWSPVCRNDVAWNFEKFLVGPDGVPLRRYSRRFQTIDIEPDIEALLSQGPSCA
Procedure, shortened: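 10 nM GPX1 + cpd, 30 min RT; start w/ 1 mM GSH, 0.5 mM cumene hydroperoxide, 0.5 mM NADPH, 100 nM GR, 0.01% BSA; buffer 50 mM Tris-HCl pH 7.5, 2 mM EDTA, 150 mM NaCl; Fl 340/450, 0 & 15 min.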

[5] = test system: Nanoluciferase (engineered Oplophorus gracilirostris luciferase); assay: Primary Nanoluciferase (NLuc) qHTS assay for identification of artifact compounds. (AID 1845222)
Procedure, shortened: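 Luminescence from secreted NLuc (filtered, 1:55-diluted S16 cell medium) read 5 min after Nano-Glo substrate; compounds preincubated 15 min, RT. Hill fits of inhibition normalized to DMSO and no-enzyme.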

Tov-21-G = assay: Primary qHTS to identify gynecologic anti-cancer compounds using libraries of approved drugs and bioactive compounds (AID 1345084); conditions: Gynecologic cancer cell panel viability, ATPlite luminescence, 48 h; series mostly up to 57.5 µM; also: nearly all actives have a fitted effect of over 55% in size; also: potency is read from the fitted curve at half-maximal effect
Procedure, shortened: as §1

[6] = biological target: Cytochrome P450 2D6 (Homo sapiens) (UniProt P10635); assay: Cytochrome P450 family 2 subfamily D member 6 (CYP2D6) small molecule antagonists: luciferase biochemical (cell-free) qHTS assay (AID 1645840; active = well fitted curve in the direction sought with a large enough effect in the repeat runs; inconclusive = weak or mixed curves; inactive = no such curve, though single readings can be large; an effect the other way counts as inactive or inconclusive; also: potency is read from the fitted curve at half-maximal effect; nearly all actives have a fitted effect of over 55% in size)
Chain of UniProt P10635 (P10635 whole entry, looked up): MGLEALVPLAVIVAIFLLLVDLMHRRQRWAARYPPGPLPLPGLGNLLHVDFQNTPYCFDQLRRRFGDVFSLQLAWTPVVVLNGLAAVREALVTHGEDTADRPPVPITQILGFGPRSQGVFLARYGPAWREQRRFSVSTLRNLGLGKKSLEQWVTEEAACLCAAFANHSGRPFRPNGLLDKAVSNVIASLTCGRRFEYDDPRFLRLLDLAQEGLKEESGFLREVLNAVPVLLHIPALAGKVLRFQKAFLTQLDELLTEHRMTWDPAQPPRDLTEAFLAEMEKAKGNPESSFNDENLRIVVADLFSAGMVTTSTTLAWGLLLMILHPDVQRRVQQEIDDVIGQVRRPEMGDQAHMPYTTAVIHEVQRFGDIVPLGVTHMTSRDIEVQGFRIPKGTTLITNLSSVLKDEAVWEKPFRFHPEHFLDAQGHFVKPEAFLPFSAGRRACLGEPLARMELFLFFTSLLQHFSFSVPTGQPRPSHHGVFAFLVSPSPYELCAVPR
Procedure, shortened: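 P450-Glo luminescent screen: recombinant CYP2D6 enzyme–proluciferin substrate mix preincubated with compound 10 min at room temperature, then NADPH regeneration added for 1 h at room temperature. Detection reagent added for 20 min; luciferin light read as relative luminescence units.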

[7] = test system: Zika virus NS2B-NS3 protease (linked construct); assay: Primary screen NINDS Rhodamine qHTS for Zika virus inhibitors (AID 1347160); also: nearly all actives have a fitted effect of over 55% in size
Procedure, shortened: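 Purified NS2B-NS3 protease with the NS2B hydrophilic domain joined by a flexible linker (25 nM) in 10 mM Tris-HCl pH 8.0, 0.01% Tween 20, preincubated 15 min at RT with compound; Rhodamine110 peptide substrate 1.5 µM; fluorescence change over 15 min; 4-parameter Hill fit.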

[8] = Primary qHTS for inhibitors of nuclear receptor binding SET domain protein 2 (NSD2) in an isogenic RCH-ACV NSD2 p.E1099K mutant (9B) (AID 1645876); conditions: activity change, negative = viability loss: at 44.9 µM (top of the series) unless noted; also: nearly all actives have a fitted effect of over 70% in size; also: potency is read from the fitted curve at half-maximal effect
[9] = Primary redox qHTS assay for identification of artifact compounds. (AID 1845223); also: potency is read from the fitted curve at half-maximal effect
Procedure, shortened: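 Amplex Red (25 uM) and HRP (250 mU/mL) in HBSS, with compounds for 15 min, then 250 uM DTT for 30 min, room temperature, dark. Fluorescence 525/598 nm read; normalized to DMSO and 10 uM DA3003; Hill fit.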

[10] = Primary fluorescence-based thiol-reactive (MSTI) qHTS assay for identification of artifact compounds. (AID 1845221); also: potency is read from the fitted curve at half-maximal effect;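 also: thiol-reactive compounds lower the probe fluorescence signal; nearly all actives have a fitted effect of over 65% in size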
Procedure, shortened: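 MSTI probe at 4 uM final in 2% DMSO/PBS pH 7.4; compounds, 1 h at room temperature in dark. Fluorescence Ex/Em 525/598 nm, normalised to Acetyl-MSTI and MSTI, fitted to 4-parameter Hill.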

[11] = Primary qHTS for inhibitors of nuclear receptor binding SET domain protein 2 (NSD2) in an RCH-ACV wild type WT cells (2C) (AID 1645877); conditions: activity change, negative = cell killing: at 44.9 µM (top of the series) unless noted; also: potency is read from the fitted curve at half-maximal effect; nearly all actives have a fitted effect of over 70% in size
Tags tell the direction and shape of the fitted curve.

SMILES: CC1(C)CCC[C@]2(C)C1CC=C(CO)[C@H]2CC/C(=C/CO)CO (stereo partly specified)
- Potency [1]: inactive
- Potency [2]: inconclusive: 11.2 µM [inhibitor, full curve]
- Potency (Tov112D): inactive

SMILES: C=C[C@@]1(C)CCC2=C([C@H]1OC(C)=O)[C@H](OC(C)=O)CC1[C@](C)(C(=O)OC)CC[C@H](OC(C)=O)[C@]21C (stereo partly specified)
- Potency [3]: inactive
- Potency [2]: inactive
- Potency [4]: inactive
- Potency [5]: inactive
- Potency (Tov-21-G): inactive

SMILES: CCC(=O)N[C@@H]1Cc2ccccc2[C@H](c2ccccc2)C1
- Potency [6]: active: 9.52 µM
- Potency (Tov112D): inactive

SMILES: CO[C@H]1C=C2C(CC[C@H](O[C@@H]3O[C@H](CO)[C@@H](O)[C@@H](O)[C@H]3O)C2(C)C)[C@]2(C)CC[C@]3(C)C([C@H](C)C(O)C(C=C(C)C)O[C@@H]4O[C@H](CO)[C@@H](O)[C@@H](O)[C@H]4O)CC[C@@]3(C)C12 (stereo partly specified)
- Potency [7]: inactive
- outcome [8]: inactive [at 9.23 µM]
- Potency [9]: inconclusive: 4.01 µM [activator, partial curve, poor fit]
- activity change, negative = cytotoxicity (Tov-21-G): inactive: 4% [at 11.6 µM]

SMILES: C[C@@H]1C(=O)OC[C@H]2C(C(=O)O)=C[C@@H]3CC(C)(C)C[C@]312
- Potency [7]: inactive
- Potency [8]: inactive
- Potency [10]: inconclusive: 11.9 µM [inhibitor, partial curve]
- Potency (Tov-21-G): inconclusive: 0.891 µM [cytotoxic, partial curve, poor fit]

SMILES: CC/C=C\[C@H](O)[C@H](O)C1=C(C)C(=O)[C@]2(O1)C(=O)N[C@@](OC)(C(=O)c1ccccc1)[C@@H]2O
- Potency [2]: inactive
- Potency (Tov-21-G): inactive

SMILES: CC(=O)OC1CC2C(C)(C)C(=O)C=CC2(C)C2CC(=O)C3=C(CCC3C3=CC(O)OC3=O)C12C (stereo unspecified)
- Potency [1]: inactive
- Potency [2]: inconclusive: 22.4 µM [inhibitor, full curve, poor fit]
- Potency [8]: inconclusive: 14.2 µM [inhibitor, single point]
- Potency [11]: inconclusive: 14.2 µM [inhibitor, single point]
- Potency [10]: inactive
- Potency (Tov-21-G): inactive

— PubChem BioAssay (NCATS)
